# Measured values taken from the supplement of paper PMC3334620.
# Whole data set: some 33,000 sequences, median “E-score (-0.5 to 0.5)” near -0.041, cut for the highest 2% near 0.37. The list shows a part of the results.
# Biological target: T1, Ecm22 (UniProt Q05958)
# T1 sequence: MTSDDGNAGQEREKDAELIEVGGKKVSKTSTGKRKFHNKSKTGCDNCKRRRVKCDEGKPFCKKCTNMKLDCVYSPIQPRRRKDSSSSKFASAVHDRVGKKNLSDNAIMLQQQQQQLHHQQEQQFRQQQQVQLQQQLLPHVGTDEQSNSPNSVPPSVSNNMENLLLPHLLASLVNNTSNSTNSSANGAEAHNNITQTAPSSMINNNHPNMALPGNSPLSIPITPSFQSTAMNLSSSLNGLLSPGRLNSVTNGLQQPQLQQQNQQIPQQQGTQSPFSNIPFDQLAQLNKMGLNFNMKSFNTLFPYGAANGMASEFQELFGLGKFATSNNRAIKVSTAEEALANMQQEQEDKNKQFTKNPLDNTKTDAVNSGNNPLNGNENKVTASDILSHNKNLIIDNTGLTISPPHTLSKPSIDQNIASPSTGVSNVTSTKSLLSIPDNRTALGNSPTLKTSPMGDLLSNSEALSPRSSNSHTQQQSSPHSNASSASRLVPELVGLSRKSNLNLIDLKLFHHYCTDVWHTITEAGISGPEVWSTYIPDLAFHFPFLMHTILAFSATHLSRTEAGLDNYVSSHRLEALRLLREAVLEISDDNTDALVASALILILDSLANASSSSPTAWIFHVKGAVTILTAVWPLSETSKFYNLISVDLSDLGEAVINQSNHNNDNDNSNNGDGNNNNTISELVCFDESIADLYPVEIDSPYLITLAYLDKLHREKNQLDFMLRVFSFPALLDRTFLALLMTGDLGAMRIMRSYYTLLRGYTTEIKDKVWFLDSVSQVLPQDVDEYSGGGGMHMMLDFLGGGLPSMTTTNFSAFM
# Assay: PBM E-score (8-mer binding enrichment) (E-score (-0.5 to 0.5)); higher = stronger / more preferred TF binding; most listed sequences are background and not binding sites
# Settings: protein concentration: 200 nM; construct: GST-full length
# Method in brief: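 Each ungapped eight-base word and its reverse complement, pooled, received an E-score from the Universal PBM Analysis Suite. Underlying scans, normalised with masliner, recorded fluorescent anti-GST bound to GST-tagged yeast transcription factors. These were applied at about 100-200 nM to universal all-10-mer Agilent arrays double-stranded by primer extension.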
row,Sequence,PBM E-score
1,AATCTTGT,-0.0453
2,TACTCCAA,-0.0514
3,TCTTCGCA,0.191
4,CTTCAGTC,-0.198
5,AACGAAGG,0.398
6,ACGTCAAC,0.0318
7,ACAGCTCC,-0.133
8,GATGTTCC,-0.0613
9,AAATGTAG,-0.144
10,TACAATCA,0.0252
11,AAGAGATA,0.119
12,ATTCGTAC,0.468
13,GAGCACTA,0.0512
14,ATCGCAAA,0.11
15,AGCGTTGG,-0.211
16,GCTGCCCA,-0.194
17,AAGATGGA,-0.204
18,GCTAATCA,0.0219
19,ATTCGCTC,0.236
20,CGAAGTCA,0.0792
21,TATTGCCA,-0.0639
22,GCGCTGGA,-0.201

row,Sequence,PBM E-score
1,GATCACGA,0.0215
2,CCCTACGG,-0.215
3,CGCGTAGC,0.214
4,GACACTAC,0.0531
5,CTAGAATA,0.139
6,ATACTCGC,0.282
7,GGGCTCAA,-0.08
8,GGATCCAC,-0.0356
9,GATGCCGC,-0.0812
10,CAGAGGTA,0.00443
11,GGCGTAGA,0.0225
12,CGAGCTCG,0.334
13,CTAACACC,-0.0983
14,AATTCGCA,0.123
15,ACTAGCGA,0.216
16,AAACGGCA,0.294
17,ATACATCA,0.0752
18,GTCTTCAA,-0.182
19,CCTTCAGC,-0.176
20,CAGACATA,-0.00071
21,CCGCGGAG,0.0769
22,AACTTTGG,0.0216

row,Sequence,PBM E-score
1,ATGTTGAG,-0.189
2,ACCACATC,0.0344
3,GCAATTCC,-0.0476
4,CCAAATCG,0.0302
5,CCTCAGAC,-0.0702
6,ACAATACC,-0.0761
7,GGGGTACA,-0.275
8,AACAGGTG,-0.0793
9,GCACCCCC,-0.0746
10,ACCGTGAT,-0.0954
11,ACCTGACG,-0.179
12,ACCGGGTG,-0.0946
13,TGGTCACA,0.0168
14,GGGGAACC,-0.105
15,AGCAACCT,-0.109
16,CTGACCAA,0.0122
17,AGCAGTAC,-0.0397
18,ACCACGTC,-0.207
19,CTCTCGTA,0.457
20,AGCCCCGC,0.0155
21,GATGCCCC,-0.223
22,AAGTGGCA,-0.177

row,Sequence,PBM E-score
1,GATTAGCA,-0.0762
2,CTGCCTCA,-0.257
3,TCGCAACA,0.0491
4,ATTGACCA,0.0863
5,CGCTAATA,0.1
6,GTTAAACA,0.00429
7,GCAATGGA,-0.101
8,ACTACCGG,-0.151
9,AAACAAGT,-0.166
10,CTGGGGCC,-0.264
11,AACCACCA,-0.122
12,AACGCTTC,0.0846
13,ACCGCGGG,0.0921
14,CTAAAGAA,-0.0968
15,AGCCGCAT,0.0755
16,ACATACTA,0.123
17,CTCTAGAC,-0.179
18,ATGAAAAG,-0.252
19,CACCATTA,0.043
20,ACTGCTTA,-0.168
21,CATCTCGG,0.137
22,ATATGACG,0.0667

row,Sequence,PBM E-score
1,AAATCGTC,0.127
2,ACCACAGA,-0.0159
3,AGAGCCAG,-0.273
4,ACGACAAC,0.366
5,AGCGCTTA,0.105
6,ATGTGAAC,-0.114
7,TAAATTAA,0.108
8,ATTGCACC,-0.233
9,CCTTGATA,0.0127
10,ATATTAAT,0.189
11,GGCGCTTA,-0.169
12,ATCTAGCA,-0.13
13,ATATCTGC,-0.0258
14,ACGATAAA,0.25
15,ACGTCCCT,-0.147
16,AAAGTAGG,-0.0199
17,AGAGGCTG,-0.33
18,GCCTTGGA,-0.2
19,AACTCTCT,-0.192
20,ACATGTAA,0.00082
21,GTTGACTA,-0.0796
22,ACTGCCCG,-0.0123
